The list shows a part of the results. The list includes weakly bound sequences.
The sequences below were run against T1, MBP-FoxP3dN (UniProt Q99JB6) (assay: PD-seq (MBP pull-down with sequencing)). Conditions: 20 mM Tris-HCl pH 7.5, 100 mM NaCl, 1.5 mM MgCl2, 0.4 uM protein, 0.1 uM dsDNA library, 30 min, room temperature, amylose pull-down; high values mean tight binding; double strand, one strand shown.
T1 sequence: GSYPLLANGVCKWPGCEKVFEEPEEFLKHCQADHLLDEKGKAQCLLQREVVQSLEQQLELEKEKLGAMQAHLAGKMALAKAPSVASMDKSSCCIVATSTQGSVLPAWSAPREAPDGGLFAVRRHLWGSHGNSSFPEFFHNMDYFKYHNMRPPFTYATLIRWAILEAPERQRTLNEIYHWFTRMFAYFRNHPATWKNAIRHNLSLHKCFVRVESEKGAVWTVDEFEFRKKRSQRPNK

| Sequence | binding signal (RPM ratio (pull-down/input)) |
| --- | --- |
| GATGATTGTTCTCCCAGCTGATGAATTCGTTTAATCGAGTAAACAAATTTTCCTAATCTTTCTGTTCAAGCGCCATCTAC | 0.803 |
| GATGATTGTTCTCCCAGCTGATGAATTACAACGTTCGAGTAAACAAATTTTCCTAATCTTTCTGTTCAAGCGCCATCTAC | 0.659 |
| GATGATTGTTCTCCCAGCTGATGAATTGAGCCGTTCGAGTAAACAAATTTTCCTAATCTTTCTGTTCAAGCGCCATCTAC | 0.704 |
| GATGATTGTTCTCCCAGCTGATGAATTCCTATGGTCGAGTAAACAAATTTTCCTAATCTTTCTGTTCAAGCGCCATCTAC | 0.291 |
| GATGATTGTTCTCCCAGCTGATGAATTCAAAAGATCGAGTAAACAAATTTTCCTAATCTTTCTGTTCAAGCGCCATCTAC | 0.175 |
| GATGATTGTTCTCCCAGCTGATGAATTTTCTCTGTCGAGTAAACAAATTTTCCTAATCTTTCTGTTCAAGCGCCATCTAC | 0.238 |
| GATGATTGTTCTCCCAGCTGATGAATTGCACGTGTCGAGTAAACAAATTTTCCTAATCTTTCTGTTCAAGCGCCATCTAC | 1.17 |
| GATGATTGTTCTCCCAGCTGATGAATTCTGGTTATCGAGTAAACAAATTTTCCTAATCTTTCTGTTCAAGCGCCATCTAC | 0.943 |
| GATGATTGTTCTCCCAGCTGATGAATTACGTAAATCGAGTAAACAAATTTTCCTAATCTTTCTGTTCAAGCGCCATCTAC | 0.468 |
| GATGATTGTTCTCCCAGCTGATGAATTGTCGCCGTCGAGTAAACAAATTTTCCTAATCTTTCTGTTCAAGCGCCATCTAC | 0.69 |
| GATGATTGTTCTCCCAGCTGATGAATTCCGCGCGTCGAGTAAACAAATTTTCCTAATCTTTCTGTTCAAGCGCCATCTAC | 1.94 |
| GATGATTGTTCTCCCAGCTGATGAATTTCAGGATTCGAGTAAACAAATTTTCCTAATCTTTCTGTTCAAGCGCCATCTAC | 0.242 |
| GATGATTGTTCTCCCAGCTGATGAATTCCTTGTCTCGAGTAAACAAATTTTCCTAATCTTTCTGTTCAAGCGCCATCTAC | 0.395 |
| GATGATTGTTCTCCCAGCTGATGAATTTTTCCCTTCGAGTAAACAAATTTTCCTAATCTTTCTGTTCAAGCGCCATCTAC | 0.197 |
| GATGATTGTTCTCCCAGCTGATGAATTCGCCTCTTCGAGTAAACAAATTTTCCTAATCTTTCTGTTCAAGCGCCATCTAC | 2.14 |
| GATGATTGTTCTCCCAGCTGATGAATTCCTCAGCTCGAGTAAACAAATTTTCCTAATCTTTCTGTTCAAGCGCCATCTAC | 0.211 |
| GATGATTGTTCTCCCAGCTGATGAATTTACTCTCTCGAGTAAACAAATTTTCCTAATCTTTCTGTTCAAGCGCCATCTAC | 0.467 |
| GATGATTGTTCTCCCAGCTGATGAATTGTAGTCATCGAGTAAACAAATTTTCCTAATCTTTCTGTTCAAGCGCCATCTAC | 1.06 |
| GATGATTGTTCTCCCAGCTGATGAATTTGGGCAGTCGAGTAAACAAATTTTCCTAATCTTTCTGTTCAAGCGCCATCTAC | 0.391 |
| GATGATTGTTCTCCCAGCTGATGAATTGTGAACGTCGAGTAAACAAATTTTCCTAATCTTTCTGTTCAAGCGCCATCTAC | 0.519 |

| Sequence | binding signal (RPM ratio (pull-down/input)) |
| --- | --- |
| GATGATTGTTCTCCCAGCTGATGAATTGTGTCTGTCGAGTAAACAAATTTTCCTAATCTTTCTGTTCAAGCGCCATCTAC | 1.48 |
| GATGATTGTTCTCCCAGCTGATGAATTCGATGCCTCGAGTAAACAAATTTTCCTAATCTTTCTGTTCAAGCGCCATCTAC | 2.03 |
| GATGATTGTTCTCCCAGCTGATGAATTCGATTCCTCGAGTAAACAAATTTTCCTAATCTTTCTGTTCAAGCGCCATCTAC | 1.22 |
| GATGATTGTTCTCCCAGCTGATGAATTCGGGTAATCGAGTAAACAAATTTTCCTAATCTTTCTGTTCAAGCGCCATCTAC | 0.457 |
| GATGATTGTTCTCCCAGCTGATGAATTTACGCCGTCGAGTAAACAAATTTTCCTAATCTTTCTGTTCAAGCGCCATCTAC | 0.747 |
| GATGATTGTTCTCCCAGCTGATGAATTTGACTGGTCGAGTAAACAAATTTTCCTAATCTTTCTGTTCAAGCGCCATCTAC | 0.479 |
| GATGATTGTTCTCCCAGCTGATGAATTAGAGCAGTCGAGTAAACAAATTTTCCTAATCTTTCTGTTCAAGCGCCATCTAC | 0.36 |
| GATGATTGTTCTCCCAGCTGATGAATTTGATCAATCGAGTAAACAAATTTTCCTAATCTTTCTGTTCAAGCGCCATCTAC | 0.294 |
| GATGATTGTTCTCCCAGCTGATGAATTGTGACGTTCGAGTAAACAAATTTTCCTAATCTTTCTGTTCAAGCGCCATCTAC | 1.06 |
| GATGATTGTTCTCCCAGCTGATGAATTCCATACGTCGAGTAAACAAATTTTCCTAATCTTTCTGTTCAAGCGCCATCTAC | 0.394 |
| GATGATTGTTCTCCCAGCTGATGAATTCTCTGGTTCGAGTAAACAAATTTTCCTAATCTTTCTGTTCAAGCGCCATCTAC | 0.215 |
| GATGATTGTTCTCCCAGCTGATGAATTCTGCCCTTCGAGTAAACAAATTTTCCTAATCTTTCTGTTCAAGCGCCATCTAC | 1.13 |
| GATGATTGTTCTCCCAGCTGATGAATTCTTGGAATCGAGTAAACAAATTTTCCTAATCTTTCTGTTCAAGCGCCATCTAC | 0.177 |
| GATGATTGTTCTCCCAGCTGATGAATTGAGCCTATCGAGTAAACAAATTTTCCTAATCTTTCTGTTCAAGCGCCATCTAC | 1.63 |
| GATGATTGTTCTCCCAGCTGATGAATTTTTCTCCTCGAGTAAACAAATTTTCCTAATCTTTCTGTTCAAGCGCCATCTAC | 0.188 |
| GATGATTGTTCTCCCAGCTGATGAATTCTTGAATTCGAGTAAACAAATTTTCCTAATCTTTCTGTTCAAGCGCCATCTAC | 0.493 |
| GATGATTGTTCTCCCAGCTGATGAATTGTGTCCATCGAGTAAACAAATTTTCCTAATCTTTCTGTTCAAGCGCCATCTAC | 1.29 |
| GATGATTGTTCTCCCAGCTGATGAATTTATCTCATCGAGTAAACAAATTTTCCTAATCTTTCTGTTCAAGCGCCATCTAC | 0.69 |
| GATGATTGTTCTCCCAGCTGATGAATTACTCTGTTCGAGTAAACAAATTTTCCTAATCTTTCTGTTCAAGCGCCATCTAC | 0.315 |
| GATGATTGTTCTCCCAGCTGATGAATTCTCCCAATCGAGTAAACAAATTTTCCTAATCTTTCTGTTCAAGCGCCATCTAC | 0.232 |
